Measured values reported in the supplement of paper PMC10126150.
Sequences with one replicate were seen in a single cluster, so their values are uncertain.

Test system: ATP
Assay: switch fluorescence ratio, 500 uM ATP over buffer (Cy3 cluster intensity, sum of 5 cycles each) (fold (ratio)); higher = stronger signal-on switching upon ATP binding; sequences stand for … in TCGTCGGCAGCGTCAGATGTGTATAAGAGACAGTTTTTTTTTTTTTTTTTTTTTTTTT…TC
Conditions: aptamer strand: ATP DNA aptamer (quencher-CACCTGGGGGAGTATTGCGGAGGAAGG + anchor), 100 nM annealed; ATP concentration: 500 uM; one replicate
Summary of the method: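 Clusters carrying Cy3-labelled switching strands on a modified Illumina MiSeq flow-cell were annealed to 100 nM quencher-labelled ATP aptamer and imaged in selection buffer. They were imaged again after 15 min with 500 uM ATP at 22 °C, over five buffer/ATP cycles with NaOH stripping and re-annealing in between. For each cluster, the fluorescence ratio is the summed Cy3 intensity of the target cycles divided by that of the buffer cycles, averaged per switch-domain sequence. Clusters outside 100-1000 RFU were left out.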
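Further: ATP exposure 15 min at 22 °C before imaging.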

For CTCTTGATAG, the switch fluorescence ratio was 1.04.

With TCACGAGGGT the switch fluorescence ratio was 1.02.

Work on CATCGAGGGT yielded a switch fluorescence ratio of 1.04.

TCAGCACAGG gave a switch fluorescence ratio of 1.43.

Work on CGAATAGTCA yielded a switch fluorescence ratio of 1.07.

GCTGCGCGCA showed a switch fluorescence ratio of 1.02.

With CCCAGTGAA the switch fluorescence ratio was 1.13.

Work on TCGGTGACTC yielded a switch fluorescence ratio of 0.961.

GGATTGATAT gave a switch fluorescence ratio of 1.03.

Sequence TATACATATG has a switch fluorescence ratio of 0.981.

CCTCGTGGCC gave a switch fluorescence ratio of 1.13.

Sequence CATTAATATC has a switch fluorescence ratio of 1.03.

Sequence TGTGACATGC has a switch fluorescence ratio of 0.99.

Work on AACTTCGTAG yielded a switch fluorescence ratio of 1.06.

With AGTACGCTGG the switch fluorescence ratio was 0.948.

GCAGGCGGAC was tested, and the switch fluorescence ratio was 1.04.

Sequence GCCTCTTGTA has a switch fluorescence ratio of 1.02.

In the case of TGTTGTTACT, the switch fluorescence ratio is reported as 1.01.

With CTGCGATCGC the switch fluorescence ratio was 0.995.

TCTTAACATA showed a switch fluorescence ratio of 1.03.

Work on TAGGGAGTTT yielded a switch fluorescence ratio of 1.06.

GAATCGCACG was tested, and the switch fluorescence ratio was 1.07.

Work on TTTCCCCAAA yielded a switch fluorescence ratio of 0.997.

Work on TCGGGCTCGT yielded a switch fluorescence ratio of 0.987.

ATGCCAACAC showed a switch fluorescence ratio of 1.12.

ACTCTTCCTG was tested, and the switch fluorescence ratio was 1.31.

Work on GAATTGATGT yielded a switch fluorescence ratio of 1.01.

With GCACACGTCC the switch fluorescence ratio was 1.12.

Work on GTAAGTGGCT yielded a switch fluorescence ratio of 0.98.

With CTTTTTCTAG the switch fluorescence ratio was 0.96.

Sequence TAAGCTGCTT has a switch fluorescence ratio of 0.93.

For GGGATGTCAG, the switch fluorescence ratio was 1.03.

Work on CTATTTTGAA yielded a switch fluorescence ratio of 0.96.

With AGTGTGGAG the switch fluorescence ratio was 1.05.

CTTCCGACAA was tested, and the switch fluorescence ratio was 3.65.

Work on TTATTATCGT yielded a switch fluorescence ratio of 1.02.

For GATTCTATCT, the switch fluorescence ratio was 0.992.

TGTATAACCC showed a switch fluorescence ratio of 0.942.

Work on CGAGCAAAAA yielded a switch fluorescence ratio of 3.27.

TGTATCAAGC was tested, and the switch fluorescence ratio was 1.05.

For AGTGGTATCG, the switch fluorescence ratio was 0.966.

Sequence AAGAGAGTCT has a switch fluorescence ratio of 0.886.

Work on GCAACCGCTA yielded a switch fluorescence ratio of 1.26.

Work on TTATATGAGC yielded a switch fluorescence ratio of 1.

AGAGCAAAGA was tested, and the switch fluorescence ratio was 1.04.

GACCCCCGA was tested, and the switch fluorescence ratio was 1.34.

Sequence AAGCGGTCTG has a switch fluorescence ratio of 0.994.

Sequence TCACAATCGT has a switch fluorescence ratio of 1.35.

Work on AGCAGACCAT yielded a switch fluorescence ratio of 1.02.

CTAATGCCGG showed a switch fluorescence ratio of 1.07.

AAGAAAGTAC gave a switch fluorescence ratio of 1.15.

For TGCGTTGTTT, the switch fluorescence ratio was 1.14.

CGGGCATGCA was tested, and the switch fluorescence ratio was 1.01.

In the case of CTCACGTTAG, the switch fluorescence ratio is reported as 1.05.

AGCTAGAAAT gave a switch fluorescence ratio of 0.995.

GCAATGCGTG gave a switch fluorescence ratio of 1.11.

Sequence AGATTCGGCA has a switch fluorescence ratio of 1.01.

In the case of AAATGAGAGC, the switch fluorescence ratio is reported as 0.931.

With CTAGGTAGTA the switch fluorescence ratio was 0.962.

With AGCATAGTTA the switch fluorescence ratio was 1.01.

CCTGAATGGG was tested, and the switch fluorescence ratio was 1.05.

With CCACGGTGGT the switch fluorescence ratio was 1.57.

GACTGCGAGC was tested, and the switch fluorescence ratio was 1.08.

For TTTCGGAATG, the switch fluorescence ratio was 1.97.

For GACATCATCT, the switch fluorescence ratio was 1.06.

CTAGCTCTGC showed a switch fluorescence ratio of 1.06.

CGCATATGA gave a switch fluorescence ratio of 1.96.

With CTGGTATGAG the switch fluorescence ratio was 0.931.

Work on CCTTGGCGGG yielded a switch fluorescence ratio of 1.08.

With GGCATTCAAA the switch fluorescence ratio was 1.01.

Sequence GCTTACTTAT has a switch fluorescence ratio of 1.04.

CTGGCGCCGT showed a switch fluorescence ratio of 0.994.

GCCACTATCG was tested, and the switch fluorescence ratio was 1.01.

For GCTGCTAACG, the switch fluorescence ratio was 1.03.

TCATTGGCCT showed a switch fluorescence ratio of 1.03.

For AATCCTGGGG, the switch fluorescence ratio was 1.

AGGCGGCAGG was tested, and the switch fluorescence ratio was 1.02.

ACGCTCGAG showed a switch fluorescence ratio of 1.04.

In the case of TCAACGTTTG, the switch fluorescence ratio is reported as 1.05.

Work on CCGGATAAGC yielded a switch fluorescence ratio of 1.46.

AAGGAATGTT gave a switch fluorescence ratio of 1.16.

Sequence ATCATAGTGC has a switch fluorescence ratio of 1.13.

Sequence CGTGCGATCA has a switch fluorescence ratio of 0.983.

GATTCGTGTC showed a switch fluorescence ratio of 1.05.

With CACCAAATGC the switch fluorescence ratio was 1.99.

In the case of ATTTAACACC, the switch fluorescence ratio is reported as 1.12.

GCTGCACTCT showed a switch fluorescence ratio of 1.06.

In the case of AATACTGTTA, the switch fluorescence ratio is reported as 1.07.

In the case of TTGGTATAAA, the switch fluorescence ratio is reported as 1.03.

In the case of TGGAATAAGT, the switch fluorescence ratio is reported as 1.02.

For CGATTATGTT, the switch fluorescence ratio was 1.03.

GCCCGGTGAC gave a switch fluorescence ratio of 1.54.

TTACGAATGG gave a switch fluorescence ratio of 1.01.

With GTTTAGAGTT the switch fluorescence ratio was 1.02.

In the case of TTGGACATGA, the switch fluorescence ratio is reported as 1.01.

With AAGAATAACT the switch fluorescence ratio was 0.993.

In the case of TCGTATTGGC, the switch fluorescence ratio is reported as 0.988.

For TGATTAGTTA, the switch fluorescence ratio was 1.04.

Work on GATTTGGGAG yielded a switch fluorescence ratio of 1.01.

AGGTGTTCT gave a switch fluorescence ratio of 0.997.

With AGGGGCACGC the switch fluorescence ratio was 0.979.

With CCTTGGAGC the switch fluorescence ratio was 1.05.

For ACAGCGCTCA, the switch fluorescence ratio was 1.06.

ACTTTTTACT showed a switch fluorescence ratio of 1.06.

Sequence TGAACCGGGG has a switch fluorescence ratio of 0.976.

CGAAAGTAAC showed a switch fluorescence ratio of 1.06.

Sequence TAGGGTGAGG has a switch fluorescence ratio of 1.01.

In the case of AATGTATGGC, the switch fluorescence ratio is reported as 1.08.

With CTACCATCTG the switch fluorescence ratio was 1.03.

GCCAATATCG was tested, and the switch fluorescence ratio was 1.03.

Work on CATTCTTGCG yielded a switch fluorescence ratio of 1.01.

For TAAGTGTGT, the switch fluorescence ratio was 1.02.

GGATGGATCG gave a switch fluorescence ratio of 0.987.

Work on TTCTGGTCGC yielded a switch fluorescence ratio of 1.02.

Sequence TTTTGTGTCG has a switch fluorescence ratio of 1.02.

TTTGGCATCG was tested, and the switch fluorescence ratio was 0.999.

Sequence ACGTCGAGGG has a switch fluorescence ratio of 1.01.

For GGCGGTTGCT, the switch fluorescence ratio was 1.

For GGAGGTAAAC, the switch fluorescence ratio was 0.97.

GGTGAATCTT gave a switch fluorescence ratio of 1.

Work on ATTCAATTTG yielded a switch fluorescence ratio of 0.999.

Work on TCACAGCGCG yielded a switch fluorescence ratio of 1.01.

GGAGCACACG gave a switch fluorescence ratio of 1.97.

Work on TTATGCCGAC yielded a switch fluorescence ratio of 1.02.

Work on ACTGGGTCAC yielded a switch fluorescence ratio of 1.03.

Work on TGGATTTCTT yielded a switch fluorescence ratio of 1.07.

Sequence ACAAAGGATG has a switch fluorescence ratio of 1.06.

Work on ATGGTGTCAC yielded a switch fluorescence ratio of 0.998.

TTCTGACTTG gave a switch fluorescence ratio of 1.01.

Sequence CGGCGAATAG has a switch fluorescence ratio of 1.05.

AGAATATTTA was tested, and the switch fluorescence ratio was 0.998.

ATAAACGTAC was tested, and the switch fluorescence ratio was 1.7.

In the case of TTCTGTCTTA, the switch fluorescence ratio is reported as 0.995.

GCAGGTTTCG was tested, and the switch fluorescence ratio was 0.993.

CAAGTGGTTC gave a switch fluorescence ratio of 0.981.

Sequence GAAGCGATCG has a switch fluorescence ratio of 0.991.

Sequence TTGCAATATT has a switch fluorescence ratio of 1.53.

GTATAGGTGT showed a switch fluorescence ratio of 1.03.

In the case of TTGACGTTTG, the switch fluorescence ratio is reported as 1.02.

CGTACCCGGA was tested, and the switch fluorescence ratio was 0.995.

Work on TTAAATTAAC yielded a switch fluorescence ratio of 1.04.

With ACTAAGTAAG the switch fluorescence ratio was 1.01.

AGTCTAGAAC gave a switch fluorescence ratio of 1.01.

With CAGTTAATCT the switch fluorescence ratio was 1.05.

GAGAGACTGA showed a switch fluorescence ratio of 0.992.

Sequence CTCGAGCGAA has a switch fluorescence ratio of 1.33.

CGCGGTCCT gave a switch fluorescence ratio of 1.12.

For TTGTTAGTCG, the switch fluorescence ratio was 1.04.

With GTGATCTCGT the switch fluorescence ratio was 1.05.

Sequence TGTAGGTGTC has a switch fluorescence ratio of 0.997.

For TAAAGACCAT, the switch fluorescence ratio was 1.02.

GTCCGGCCGC gave a switch fluorescence ratio of 1.1.

For CGAGCCAGTA, the switch fluorescence ratio was 1.19.

With TTGTAAGC the switch fluorescence ratio was 0.999.

In the case of CCAGACGAGC, the switch fluorescence ratio is reported as 1.1.

In the case of AGCCCCTAGA, the switch fluorescence ratio is reported as 0.984.

TCAAGTGAGT showed a switch fluorescence ratio of 1.
